Laboratory results from the supplement of paper PMC8728848.
This is one part of the list.

Experiments:
Assay in all cases: glycan array binding signal (z-score within array); higher = stronger binding
Conditions in all cases: glycan notation: IUPAC condensed, linker removed; mutation: R82H, R255H
[1] = target: Gal(b1-4)GlcNAc(b1-2)Man(a1-3)[Gal(b1-4)GlcNAc(b1-2)Man(a1-6)]Man(b1-4)GlcNAc(b1-4)GlcNAc
Outline: (§1)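 Negative Z-scores can be read as non-binding. The Z-score is calculated within each array and then averaged across arrays of one protein sequence at different concentrations or buffers and across linkers. Arrays, 3228 in all, were curated from the Consortium for Functional Glycomics database and kept only where the protein sequence was available.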

[2] = target: Gal(b1-4)GlcNAc(b1-2)Man(a1-3)[Gal(b1-4)GlcNAc(b1-2)Man(a1-6)]Man(b1-4)GlcNAc(b1-4)[Fuc(a1-6)]GlcNAc
Outline: as §1

[3] = target: Gal(b1-4)GlcNAc(b1-2)Man(a1-3)[Gal(b1-4)GlcNAc(b1-2)Man(a1-6)][Gal(b1-4)GlcNAc(b1-4)]Man(b1-4)GlcNAc(b1-4)[Fuc(a1-6)]GlcNAc
Outline: as §1

[4] = target: Gal(b1-4)GlcNAc(b1-2)Man(a1-3)[Gal(b1-4)GlcNAc(b1-2)Man(a1-6)][GlcNAc(b1-4)]Man(b1-4)GlcNAc(b1-4)[Fuc(a1-6)]GlcNAc
Outline: as §1

[5] = target: Gal(b1-4)GlcNAc(b1-2)Man(a1-3)[GlcNAc(b1-2)Man(a1-6)]Man(b1-4)GlcNAc(b1-4)GlcNAc
Outline: as §1

[6] = target: Gal(b1-4)GlcNAc(b1-2)Man(a1-3)[GlcNAc(b1-4)][Gal(b1-4)GlcNAc(b1-2)Man(a1-6)]Man(b1-4)GlcNAc(b1-4)GlcNAc
Outline: as §1

[7] = target: Gal(b1-4)GlcNAc(b1-2)Man(a1-3)[Man(a1-6)]Man(b1-4)GlcNAc(b1-4)GlcNAc
Outline: as §1

[8] = target: Gal(b1-4)GlcNAc(b1-2)Man(a1-6)Man(b1-4)GlcNAc(b1-4)GlcNAc
Outline: as §1

[9] = target: Gal(b1-4)GlcNAc(b1-2)Man(a1-6)[GlcNAc(b1-2)Man(a1-3)]Man(b1-4)GlcNAc(b1-4)GlcNAc
Outline: as §1

[10] = target: Gal(b1-4)GlcNAc(b1-2)Man(a1-6)[Man(a1-3)]Man(b1-4)GlcNAc(b1-4)GlcNAc
Outline: as §1

[11] = target: Gal(b1-4)GlcNAc(b1-2)[Gal(b1-4)GlcNAc(b1-4)]Man(a1-3)[Gal(b1-4)GlcNAc(b1-2)Man(a1-6)]Man(b1-4)GlcNAc(b1-4)GlcNAc
Outline: as §1

[12] = target: Gal(b1-4)GlcNAc(b1-2)[Gal(b1-4)GlcNAc(b1-4)]Man(a1-3)[Gal(b1-4)GlcNAc(b1-2)[Gal(b1-4)GlcNAc(b1-6)]Man(a1-6)]Man(b1-4)GlcNAc(b1-4)GlcNAc
Outline: as §1

[13] = target: Gal(b1-4)GlcNAc(b1-2)[Gal(b1-4)GlcNAc(b1-4)]Man(a1-3)[GlcNAc(b1-4)][Gal(b1-4)GlcNAc(b1-2)Man(a1-6)]Man(b1-4)GlcNAc(b1-4)GlcNAc
Outline: as §1

[14] = target: Gal(b1-4)GlcNAc(b1-2)[Gal(b1-4)GlcNAc(b1-4)]Man(a1-3)[GlcNAc(b1-4)][Gal(b1-4)GlcNAc(b1-2)[Gal(b1-4)GlcNAc(b1-6)]Man(a1-6)]Man(b1-4)GlcNAc(b1-4)GlcNAc
Outline: as §1

[15] = target: Gal(b1-4)GlcNAc(b1-2)[Gal(b1-4)GlcNAc(b1-6)]Man(a1-6)[Gal(b1-4)GlcNAc(b1-2)Man(a1-3)]Man(b1-4)GlcNAc(b1-4)GlcNAc
Outline: as §1

[16] = target: Gal(b1-4)GlcNAc(b1-2)[Gal(b1-4)GlcNAc(b1-6)]Man(a1-6)[Gal(b1-4)GlcNAc(b1-2)Man(a1-3)]Man(b1-4)GlcNAc(b1-4)[Fuc(a1-6)]GlcNAc
Outline: as §1

[17] = target: Gal(b1-4)GlcNAc(b1-2)[Gal(b1-4)GlcNAc(b1-6)]Man(a1-6)[GlcNAc(b1-4)][Gal(b1-4)GlcNAc(b1-2)Man(a1-3)]Man(b1-4)GlcNAc(b1-4)GlcNAc
Outline: as §1

[18] = target: Gal(b1-4)GlcNAc(b1-2)[Gal(b1-4)GlcNAc(b1-6)]Man(a1-6)[GlcNAc(b1-4)][Gal(b1-4)GlcNAc(b1-2)[Gal(b1-4)GlcNAc(b1-4)]Man(a1-3)]Man(b1-4)GlcNAc(b1-4)[Fuc(a1-6)]GlcNAc
Outline: as §1

[19] = target: Gal(b1-4)GlcNAc(b1-3)Gal(b1-3)GalNAc
Outline: as §1

B1: Gal 8 (Mus musculus), Q9JL15 (protein)
chain: MGGSHHHHHHGMASMLSLNNLQNIIYNPIIPYVGTITEQLKPGSLIVIRGHVPKDSERFQVDFQLGNSLKPRADVAFHFNPHFKRSSCIVCNTLTQEKWGWEEITYDMPFRKEKSFEIVFMVLKNKFQVAVNGRHVLLYAHRISPEQIDTVGIYGKVNIHSIGFRFSSASALPHTLGDLQSMETSALGLTQINRENIQKPGKLQLSLPFEARLNASMGPGRTVVIKGEVNTNARSFNVDLVAGKTRDIALHLNPHLNVKAFVRNSFLQDAWGEEERNITCFPFSSGMYFEMIIYCDVREFKVAINGVHSLEYKHRFKDLSSIDTLSVDGDIRLLDVRSW
[1]
  glycan array binding signal (z-score): -0.292
[2]
  glycan array binding signal (z-score): -0.229
[3]
  glycan array binding signal (z-score): -0.26
[4]
  glycan array binding signal (z-score): -0.281
[5]
  glycan array binding signal (z-score): -0.274
[6]
  glycan array binding signal (z-score): -0.278
[7]
  glycan array binding signal (z-score): -0.243
[8]
  glycan array binding signal (z-score): -0.259
[9]
  glycan array binding signal (z-score): -0.276
[10]
  glycan array binding signal (z-score): -0.273
[11]
  glycan array binding signal (z-score): -0.275
[12]
  glycan array binding signal (z-score): -0.286
[13]
  glycan array binding signal (z-score): -0.271
[14]
  glycan array binding signal (z-score): -0.268
[15]
  glycan array binding signal (z-score): -0.272
[16]
  glycan array binding signal (z-score): -0.256
[17]
  glycan array binding signal (z-score): -0.28
[18]
  glycan array binding signal (z-score): -0.267
[19]
  glycan array binding signal (z-score): -0.251
